The full ranking holds about 33,000 sequences; the median of “E-score (-0.5 to 0.5)” is about -0.04, and the highest 2% start at about 0.36. The list shows a part of the results.
biological target: T1, Hmlalpha2 (UniProt P0CY09); assay: PBM E-score (8-mer binding enrichment) (E-score (-0.5 to 0.5)); higher = stronger / more preferred TF binding; most listed sequences are background and not binding sites; settings: protein concentration: 200 nM; construct: GST-full length
T1 sequence: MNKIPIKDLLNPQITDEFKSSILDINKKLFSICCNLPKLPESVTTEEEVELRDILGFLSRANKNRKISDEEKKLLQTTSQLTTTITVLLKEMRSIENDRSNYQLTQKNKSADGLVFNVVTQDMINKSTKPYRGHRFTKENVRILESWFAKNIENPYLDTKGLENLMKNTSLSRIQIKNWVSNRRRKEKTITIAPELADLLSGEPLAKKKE
Outline: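 GST-tagged yeast TFs (full-length or DNA-binding domain) were made by PURExpress in vitro transcription/translation and applied at about 100-200 nM to universal all-10-mer Agilent arrays. The arrays were made double-stranded by primer extension, on fresh or once-stripped slides. Bound protein was detected with fluorescent anti-GST, and scans were normalised with masliner. Each ungapped eight-base word, pooled with its reverse complement, received an E-score (modified Wilcoxon-Mann-Whitney statistic) from the Universal PBM Analysis Suite.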

Sequence	PBM E-score
CCTGCGAC	-0.228
CAGCAGCG	0.0849
CCATGTGC	0.0482
AATGCAGT	-0.00748
ACTGGATG	-0.0192
AGCCAGGG	-0.212
GACCCCAA	-0.181
AGATGTTG	-0.0256
ATGAGGGA	-0.147
AGTTTAAA	0.233
GCAGAAGC	-0.0446
GACGCTCA	-0.111
AGGTCGGG	-0.176
AGCTAGCA	-0.00921
ACAGTTAT	-0.0215
ACCACGCT	-0.134
ATAGGTTG	-0.175
GAGAGTAA	0.125
ACAATGTA	0.343
TCACATAA	0.228
ATCGTTAC	-0.0552
GCCCGAGC	-0.135
ATAAAATC	-0.0133
AGTCACTA	-0.0812
ACGAGGTG	0.0678

Sequence	PBM E-score
CCCCCATA	-0.287
GCCCGTTA	-0.208
GCAATACA	0.345
CAAGATGC	0.0469
ATATGCTG	-0.0833
CATCAGGC	-0.0475
GCTTCGTA	0.0191
ACATCGCA	0.193
CAAGTATC	0.0593
ACGGGCGC	-0.0808
AAGCGTAT	0.0488
AATTAACT	0.173
AAGCGCTA	-0.0377
CGCGGGCA	0.145
CCTCGCCG	-0.2
CAGCCTAC	-0.112
CTCTACGC	0.0772
CAGTGTGG	-0.13
GCCCCTAA	-0.235
AGCACGTA	0.203
CAAACTGC	-0.137
GATACGCC	-0.285
ACGCGTAC	0.345
CTTACGAC	-0.0977
CGCATTAG	-0.105

Sequence	PBM E-score
AAAGTCAG	-0.132
CGTGCGAG	-0.0847
AAAACAAG	0.273
CAGATTAA	0.11
GTCTGAAA	-0.00255
AACCGTAA	-0.0191
AGCTGCCG	-0.324
ACCCCAGA	-0.286
ACCCGCCA	-0.0792
GTCTACAA	0.152
AGACCCAG	-0.248
CTCGGACC	-0.277
GAATAATC	0.0998
ACAAGCAA	0.211
AAGGACGG	-0.303
CGATGTAC	0.221
CCGTTCCG	-0.225
CTAAGCGC	-0.106
CAGCCTGC	-0.0442
CATGATAG	0.152
CCTTGCTC	-0.27
CAAAGCGA	-0.0008
CGAACTTC	0.0501
ATGCACAC	0.106
AATTCGTG	0.0212

Sequence	PBM E-score
AAGGGTGT	0.0914
CCCACGGA	-0.238
AGATTAAT	0.109
GGTCTCAC	-0.0611
ATGGTACG	0.104
GGCGCCTA	-0.149
AATACGGA	0.0243
CTTTGTTC	0.0245
TAGAGCTA	-0.0458
AACGAGAG	-0.0137
AACCTTGA	0.171
CGCCGGAA	-0.247
ACCGGCCT	-0.207
CTGTCCCC	-0.341
GACACCAA	-0.139
CGCCCTAA	-0.133
GGCGTCCC	-0.425
ATAATCTA	0.131
ATAAGACC	-0.0531
CAGCCAGC	-0.251
CACGAAAG	0.0877
AGTGAACC	-0.0698
ACCGCGCC	-0.182
GTCTTAAA	0.0182
CATACGTC	0.0276

Sequence	PBM E-score
CAAGGGAA	-0.028
GACTGTCA	-0.129
CTTTAATC	-0.00148
CAGAAGTC	-0.0727
TATAGCAA	0.0624
AAATCTAT	0.127
GCCCATAC	0.0444
TCCCCCAA	-0.264
TGGCGGAA	-0.304
GGATTTAA	0.00503
ACCGGAAA	-0.227
CTGTGATC	-0.0984
CCGGAACC	-0.298
CAGAGCAA	-0.0412
CATGACTC	-0.0327
CTGGTGCA	-0.257
GATTATAC	0.0261
ATCCCCGC	-0.224
AAGCCAGG	-0.0641
TGCTGCAA	0.106
CCGACCAG	-0.132
CTACTCGC	-0.12
ATAGGTGA	-0.14
CTAGTGTA	0.215
AAAAACCC	-0.0194

Sequence	PBM E-score
TCGGCGCA	0.0292
GCAGCTGC	-0.173
GATGCTCC	-0.186
CCTAGAGA	-0.38
CCTACGAG	-0.021
AGATGCTG	-0.141
GCGTGCCC	-0.208
GAAAGGTA	0.00017
CTATCAAA	-0.113
CCCCGAGC	-0.222
CTCCGGGC	-0.289
TCAAGCCA	-0.0161
CACCTGGA	0.0519
TCTTGTAA	0.439
ACGGAAGG	-0.108
CTCGGTTA	0.0333
CCGATTAG	-0.205
AACATAAC	0.403
ATCCTGGG	-0.0481
CCATTTAG	-0.169
CCACCCTA	-0.285
GGGCGCCA	-0.212
CCATTTCG	-0.223
GACTCGGA	-0.331
CGAAAGTA	-0.0274

Sequence	PBM E-score
CTTACTTC	0.029
GGTCTGAC	-0.149
CTGTCCAA	-0.0758
CCTAGTGA	-0.238
ATTCAGAC	0.0682
GGGCATAC	-0.234
CGTTTTTA	0.253
CTAAAGGC	-0.151
CTCTGTCA	0.0728
CTTTATAA	0.138
ACTCGACA	0.203
ACTGGTAT	-0.094
ACCGGGTC	-0.0576
ACAATTGC	-0.0822
ACATTTAC	0.348
CGGCGTAG	-0.145
CTACGATC	0.0828
ACGCTCAT	0.11
CGCTACGC	-0.0548
AAAGGGAC	-0.2
ATTTCGGG	-0.134
GGTCTGCA	-0.164
TAAGAAAA	0.0949
CGTTCCAA	0.106
GGTCCCCA	-0.321

Sequence	PBM E-score
GTTGAACA	0.217
AGCCCTCA	-0.17
CCACAAAC	0.011
GCCCGTAC	-0.197
AAACTAGG	-0.0246
CTCAAAAA	-0.0777
CAGATGCG	-0.119
TTCGGCAA	0.108
GTTTCATA	-0.152
AACTTCGG	-0.138
ATTTCAGA	0.0529
CGCAACGA	0.23
ATGATCAC	-0.0124
GGTCATTA	0.0766
AACATATT	0.272
AAACCTAC	0.125
ACCCGCAG	0.0777
ACGCCGCT	0.0209
CACCGTGA	-0.121
CATAGTCC	-0.0675
TAATTTAA	0.233
GATCTGCA	-0.0388
AGAACCAT	0.116
ACGCAAGC	0.0935
TCTTCTAA	-0.0106

Sequence	PBM E-score
AATACCTC	0.15
CTTCTCTA	-0.088
AGCAGTTA	0.00423
AAGCCGCC	-0.258
ACTAAGGG	-0.245
AGAGTACC	0.012
CCACTGCC	-0.244
CTCAAGAA	-0.0411
GGATGAAA	-0.212
CATGGAAC	-0.0616
CTTCTAGC	-0.197
GCATTAAA	0.23
ATAACGCG	0.353
AACGCAAA	0.158
CGGCGTAC	0.0928
ACTACTCG	0.133
AGATGGCC	-0.17
GATAGCGC	0.102
CCGAAGGC	-0.25
ACAAAAAT	0.144
AACACCAT	0.126
ATCTTAGC	0.0548
AGAAGTGA	-0.0712
TCGACAGA	-0.0778
CAATTCTG	-0.209

Sequence	PBM E-score
TGCTAAAA	0.111
CGCGACCC	-0.0799
GCTGAATA	0.0885
AATGGTCA	0.0279
AAAAAAGC	0.0656
CCGATGGC	-0.259
CACTATCC	-0.218
GATCGGCA	-0.126
AGCCCTTG	-0.205
GATTGCTA	-0.0386
GGGAGAAC	-0.204
TAGATCGA	0.0396
TCAGTTCA	0.00802
ATTGTTTG	0.17
AACCCTGT	0.16
GTGTGAAC	0.271
ATGGGCAA	-0.108
TGGGCACA	-0.186
AAGGTAAC	0.0918
ACTTGCAA	0.162
ACGCATTA	0.334
AGGATACT	-0.0484
ACCAGCAT	0.0476
AGAATAGA	-0.00525
ATTTAGGG	-0.126

Sequence	PBM E-score
ACATCAGG	0.0683
CCGTCACC	-0.371
AGAGGGCT	-0.262
ATGCCATA	-0.0625
AACGTTCT	0.122
ACGGAAGT	-0.133
CGGATGTC	-0.279
CAGAGTTA	0.0305
CGACCGTA	-0.151
CCACCCGA	-0.216
ACGATTGA	0.143
GGGTTCCA	-0.261
ACTGCAGG	-0.11
GAGCCCTC	-0.283
CTTCAAGC	-0.147
GTGCTATA	0.147
AGGCATAT	0.00171
ATAGGAAC	-0.0625
CCGGCCCG	-0.144
GGTATACA	0.254
AAACAGAG	0.00132
ATACCTTG	0.0608
AGAATCTC	-0.015
TACGTTAA	0.325
CGTACCCA	-0.157

Sequence	PBM E-score
GCTCATTA	-0.0971
GTTGGAAA	-0.0664
ATTACGGC	0.0883
CATTTGCG	0.143
CTAGCCAA	-0.0547
AGTGCGAA	-0.0957
ATCCCTCA	-0.175
AATACTCT	0.168
AGAAGACT	-0.154
ACGTCCAG	-0.123
ATAATTTA	0.175
CGCTTGTA	0.318
GAGTCACC	-0.304
GCCGGCAA	-0.171
ACCTAGGA	-0.107
AAAGGGAG	-0.199
CTATTGTA	0.298
ACACTGGG	0.0176
ATATCTTA	0.139
ACGCCAGG	0.0642
GGAATGCC	-0.267
AACTTACT	0.0183
TCATCTCA	-0.113
CAGCTAAC	-0.0783
CCGATGTC	-0.0651

Sequence	PBM E-score
TAACGAGA	0.172
GCACCACA	-0.175
AGCACCAG	-0.15
CCGCCTCC	-0.329
AATAGGTA	0.116
CGACCTTA	-0.0344
AAGTTCTA	-0.0332
AGATGTGC	-0.112
AAAACCAT	0.03
CGGTGGCA	-0.323
TTATTGAA	0.134
GCCGCTAA	-0.0775
ATTCATGG	0.102
AGCTGTAC	-0.0823
ACCTGCAA	-0.241
CAATTCTA	0.0503
ATACATGA	0.465
CGCCAAGA	-0.208
CCCATGGA	-0.1
CATTGAAA	0.221
AAGCCGTA	-0.00684
GTGGGTCA	-0.254
AAGGCAGT	-0.131
AAGGCATA	0.0323
ACGCATGG	0.041

Sequence	PBM E-score
GATATCGC	-0.0096
ACGTACGG	-0.0574
GAATAGAA	0.0975
AGACCGAA	-0.0549
CTGCTAAG	-0.239
GCACACGA	0.0924
CGAGGGCA	-0.161
ATCGCTAA	0.0284
ACACAACG	0.377
AACTCGCC	-0.0268
ACTAGACC	-0.0766
AATCATTC	-0.0806
ATCGGTGC	-0.019
ACTTACCG	0.0981
GGAGGCAC	-0.195
CACCTGTA	-0.0584
ATACAAAG	0.306
GACAGAGC	-0.141
GCTACCCA	-0.216

From the supplement of paper PMC3334620
